ChEMBL document CHEMBL4888484, “Replenishing the malaria drug discovery pipeline: Screening and hit evaluation of the MMV Hit Generation Library 1 (HGL1) against asexual blood stage Plasmodium falciparum ,using a nano luciferase reporter read-out” (2022)
About 540 (0.36%) of roughly 150,000 compounds showed an effect of 50% or more. This is one part of the list.

Test system: Plasmodium falciparum
Assay: Primary screen in NF54 nanoGlo assay, in single point, at 2uM, 72h; a lower Z score goes with more inhibition
Type: functional, Erythrocyte
Conditions: timepoint 72 hour

| Structure (SMILES) | % Inhibition | Z score |
| --- | --- | --- |
| C[C@@H](CC(=O)Nc1nc(C#N)c(C#N)[nH]1)c1cccc(C(F)(F)F)c1 | 14% | -2.23 |
| COc1cccc(-c2oncc2CN2CCC(C)CC2)c1 | 4% | -0.7 |
| O=C1NC(=O)[C@@H]2CN(C(=O)C3(Cc4ccc(Cl)cc4)CC4CCC3C4)C[C@H]12 (some centres undefined) | -9% | 1.66 |
| COc1ccc(S(=O)(=O)N2C[C@H]3CN(S(=O)(=O)c4ccccc4)C[C@@H](C2)O3)cc1 | -5% | 0.91 |
| CC(C)(C)NC(=O)N1CCCN(S(=O)(=O)c2ccccc2)CCC(=O)NCC1 | 2% | -0.23 |
| COc1ccc(CCNc2nc(-c3ccc4[nH]c(=O)[nH]c4c3)cs2)cc1OC | -10% | 1.24 |
| CC[C@@H](C(=O)NCc1ncc2c(n1)CCC2)n1cccn1 | -6% | 1.04 |
| CN(C)[C@H]1[C@@H]2CC[C@H]1CN(C(=O)Cc1nc3cc(Cl)ccc3[nH]1)C2 | -7% | 1.09 |
| COc1ccc(-c2csc3c2NC(=O)C[C@H]3c2cccs2)cc1 | -10% | 1.31 |
| O=C(NCC1CCN(Cc2ncc[nH]2)CC1)c1ccon1 | -21% | 2.06 |
| CC1(C)C[C@H](CNS(=O)(=O)C2CC2)C(C)(C)O1 | 1% | -0.06 |
| Clc1ccc(CNc2nnc(N3CCOCC3)c3ccccc23)cc1 | -12% | 1.1 |
| COc1cc(NCc2cn3ccnc3s2)nn1C | -1% | 0.07 |
| Cc1ccoc1C(=O)N1CC[C@@]2(CCCN(CCc3ccccc3)C2)C1 | -6% | 1.1 |
| CC[C@H]1COCCN1C(=O)CCCN1CCCC1=O | 5% | -0.7 |
| O=C(NCc1nnc2cc(C(F)(F)F)ccn12)c1cnc[nH]1 | -26% | 5.24 |
| CC(C)OC(=O)N1CCC2(CC1)CC(=O)N(C/C=C/c1ccccc1)C2 | -6% | 0.68 |
| COc1cccc(NC(=O)Nc2ccc3c(c2)NC(=O)C(C)(C)O3)c1 | 38% | -5.11 |
| c1ccc(CN2CCN(c3ncnc4c3nc3n4CCCCC3)CC2)cc1 | -13% | 1.58 |
| Cc1nc2cc(C(=O)N3CCN(C)C(=O)C3)ccc2s1 | -13% | 1.23 |
| CCCn1nc(COc2cccc(F)c2)nc1C1CCN(C(C)=O)CC1 | 4% | -0.65 |

| Structure (SMILES) | % Inhibition | Z score |
| --- | --- | --- |
| COCCCN(Cc1ccc2nsnc2c1)C1CCN(C)CC1 | 3% | -0.64 |
| COc1ccc(-c2nc3c(cnn3-c3ccccc3)c(N)c2S(C)(=O)=O)cc1 | -6% | 0.74 |
| CC(=O)c1cccc(S(=O)(=O)N2CCCC[C@H]2c2nc(-c3ccccc3)c[nH]2)c1 | 5% | -0.62 |
| CCN1CCN(C[C@@H]2CN(c3nccs3)C[C@@H]2CO)CC1 | -12% | 1.56 |
| O=C(NC1CCCCCCC1)c1cc2n(n1)CCCN(Cc1ccc(Cl)cc1)C2=O | 4% | -0.7 |
| CCc1nc(C)sc1CNC(=O)c1cn(C)c(=O)[nH]c1=O | 2% | -0.31 |
| Cc1ccc(-n2ncc3c2CC(C)(C)C[C@@H]3NC(=O)C2CCOCC2)cc1 | -5% | 0.57 |
| O=C([C@H]1CC(=O)N(c2ccc(F)c(Cl)c2)C1)N1CCN(C(c2ccccc2)c2ccccc2)CC1 | 37% | -4.16 |
| CCC1(CC)NC(=O)N(CC2(COc3cccc(COC)c3)CCC2)C1=O | -7% | 0.74 |
| COc1ccccc1N1CCN(C(=O)c2cn3c(n2)CC[C@H](c2ccccc2C)C3)CC1 | -15% | 1.44 |
| C[C@@H](CCc1ccco1)Nc1cncc(-n2cccn2)n1 | 6% | -0.5 |
| NC(=O)Nc1ccc(Br)c(Cl)c1Cl | 0% | 0.02 |
| CCOC(=O)c1nc(N2CCCC2)c2c(C)c(C)n(-c3ccccc3)c2n1 | -2% | 0.28 |
| Cc1nc(C(C)C)sc1CNC(=O)CCn1nnnc1C | -8% | 1.25 |
| Cc1c(C(=O)N2CCn3ccnc3[C@@H]2C(C)C)c(C)n(C)c1-c1ccccc1 | -4% | 0.47 |
| CCN(CC(N)=O)[C@@H](Cc1ccc(C)cc1)C1CC1 | 5% | -0.54 |
| CS(=O)(=O)N(C(=O)NC(=O)Nc1ccc(Cl)cc1Cl)C1CCCCC1 | -10% | 2 |
| CCCc1ccc(S(=O)(=O)N2CCC3(CC2)Nc2ccc(C)c(C)c2-n2cccc23)cc1 | -4% | 0.58 |
| O=C(NC1C2CC1N(CCOc1cccc(F)c1)C2)c1cc2ncccn2n1 (centres undefined) | 1% | -0.15 |
| COCCOc1ccc(NS(=O)(=O)Cc2ccc3ccccc3c2)cn1 | -6% | 0.81 |
| Cc1cc(C)n(CC2(CNC3CCN(c4ccc(F)cc4C)CC3)CC2)n1 | -8% | 1.54 |

| Structure (SMILES) | % Inhibition | Z score |
| --- | --- | --- |
| CCCCc1nc(CN[C@@H](C)c2nncn2C)c[nH]1 | 0% | -0.02 |
| O=C(NCc1nc(C2CC2)no1)c1cccc(S(=O)(=O)NC2CCC2)c1 | 12% | -1.49 |
| COCC[C@H](C)N1CC(Oc2ccccc2)C1 | 2% | -0.21 |
| CCN(CC)CC[C@H]1CN(C(=O)Cc2ccc(OC)cc2)CC[C@H]1CC(=O)O | 34% | -3.8 |
| C[C@@H](c1ccncc1)N(C)Cc1cccc2nonc12 | -12% | 2.12 |
| COCC1(NC(=O)c2ccc(C(C)C)n(C)c2=O)CCCC1 | 4% | -0.51 |
| CN(C(=O)c1cnn(-c2ccc(Cl)cc2Cl)c1C1CC1)C1CC1 | -14% | 1.77 |
| CCOC(=O)C1CCN(c2c(C#N)c(=O)n(C)c(=O)n2C)CC1 | -10% | 1.86 |
| CCN(CC(=O)Nc1ccc2c(c1)OCCO2)S(=O)(=O)c1cnc2ccccc2c1 | -1% | 0.1 |
| CCOc1ccc(-c2nnn(CN3CCC(C(=O)Nc4ccc(Br)cn4)CC3)n2)cc1 | -3% | 0.6 |
| O=C(NC1CCN(C(=O)C2C3CCCCC32)CC1)c1ccoc1 (centres undefined) | 4% | -0.8 |
| Cc1csc([C@H](C)N(C)C(=O)c2cnc(-c3csc(C)n3)nc2O)n1 | -4% | 0.77 |
| C=CCOc1ccccc1[C@H]1CC(=O)NCc2nc3cc(C)ccn3c21 | -3% | 0.48 |
| CCc1nc(C)sc1C(=O)N[C@@H]1C[C@H]2OCC[C@@H]12 | -4% | 0.89 |
| COc1nc(Oc2ccc(C(=O)Nc3ccccc3)cc2)nc(Oc2ccc(C(=O)Nc3ccccc3)cc2)n1 | -14% | 1.7 |
| O=C(NCCc1cc(F)c(F)c(F)c1)N1CC(=O)N(C2CC2)C1 | -2% | 0.43 |
| CC(=O)Nc1cccc(NC(=O)CN2CC[C@@H](OC(C)C)C2)c1 | 12% | -1.53 |
| Cc1oc(-c2ccccc2)nc1CNC(=O)Nc1ccccc1 | 2% | -0.31 |
| Cc1ccc(CNC(=O)N2CCC[C@H](CN3CCC(C)CC3)CC2)cc1 | 0% | 0 |
| COc1ccc(C)cc1NC(=O)Cn1c(=O)n(C(C)C)c(=O)c2sc(N3CCCCC3)nc21 | -22% | 1.96 |
| O=C1C2N=NN(Cc3nc(-c4ccc(Cl)cc4)no3)C2C(=O)N1c1ccc2c(c1)CCC2 (centres undefined) | 5% | -0.59 |

| Structure (SMILES) | % Inhibition | Z score |
| --- | --- | --- |
| Cc1nc(C)c(Cc2ccc(Cl)cc2)c(N2CCN(S(=O)(=O)c3ccccc3)CC2)n1 | -8% | 0.93 |
| O=C(NC1CCCCC1)C1=NN(c2ccccc2)C(=O)CC1 | -4% | 0.56 |
| CC1(C)NC(=O)N(CCOC(=O)c2cc3c(cc2O)CCCC3)C1=O | 2% | -0.17 |
| CN(C(=O)Cc1cnn(C)c1)c1cc(Cl)cc(Cl)c1 | 15% | -1.83 |
| COc1ccc(C(=O)c2oc3ccccc3c2NC(=O)c2csnn2)cc1Cl | -18% | 1.56 |
| CCn1nc(C)c(-c2cccc(C(=O)N3CCC[C@@]4(CCNC4)C3)c2)c1C | 0% | -0.02 |
| CCn1nnnc1-c1ccc(OC)c(S(=O)(=O)N[C@H]2CCS(=O)(=O)C2)c1 | -3% | 0.49 |
| CCCNC(=O)C1(NC(=O)C[C@@](O)(c2ccccc2)C2CC2)CCCCC1 | 33% | -3.73 |
| Cc1ccccc1N1CCN(c2ncccc2CNCc2ccc(CO)o2)CC1 | 0% | -0.03 |
| COc1ncc(C(=O)N2CCCC2)cn1 | -2% | 0.22 |
| Cc1ccc(C(=O)N2C[C@@H]3CN(C(=O)C4CCCC4)C[C@]3(C(=O)O)C2)s1 | -10% | 1.64 |
| O=C([C@@H]1CCCN1C(=O)c1ccco1)N1CCCCCCC1 | 28% | -3.21 |
| Cn1ccc(NC(=O)C(=O)N(Cc2ccccc2)C2CC2)n1 | -3% | 0.46 |
| CCc1ccc(CN2C[C@H]3CCCc4nnc(-c5ccc(F)cc5)n4[C@H]3C2)cc1 | -9% | 1.04 |
| CN(C)c1nc(N2CCC3(CCNC(=O)CC3)CC2)ncc1F | -3% | 0.41 |
| C[C@H](NC(=O)Cc1n[nH]c(=O)c2cc(-c3ccccc3)nn12)c1ccccc1 | -6% | 0.74 |
| O=c1[nH]c2c(c(=O)[nH]1)CCN(Cc1ccccc1)C2 | 1% | -0.12 |
| O=C(CNC(=O)c1cnccn1)NC1CCCCCCC1 | 8% | -1.41 |
| Cc1ccc2c(c1)CCCN2C(=O)CN1C(=O)c2ccccc2C1=O | -21% | 3.43 |
